# From PubChem BioAssay AID1466 (National Center for Advancing Translational Sciences (NCATS), 2008)
# About 10 (0.005%) of roughly 200,000 compounds were called active. This list was built around the results that the source calls inconclusive (neither active nor inactive); the mix of calls is not that of the screen. Calls come from the whole dose curve; as a rule, active = well fitted inhibition curve with a large enough effect; inconclusive = small, poorly fitted or top-dose-only effect, or effect the other way, or another doubt; inactive = no such curve, though single readings can be large or run the other way. Potencies of inconclusive entries are left out as doubtful fits.
# Target: Lysosomal alpha-glucosidase (Homo sapiens) (UniProt P10253)
# Test: qHTS Assay for Inhibitors of Human alpha-Glucosidase as a Potential Chaperone Treatment of Pompe Disease;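 for activity change, negative = inhibition: plate controls were uninhibited enzyme wells for no effect and no-enzyme background for full effect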
# Conditions: purified human GAA, 4-MU-alpha-glucoside fluorescence; activity change, negative = inhibition: at 76.9 µM (top of the series) unless noted
# Outline: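 Fluorescence at Ex 365/Em 440 nm from 4-methylumbelliferone reported enzyme activity after 20 min at room temperature. Reactions used 4 nM enzyme and 400 uM substrate at pH 5.0; curves fitted with the Hill equation.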
# Potency is the fitted concentration of half-maximal effect; tags give direction and shape of the fitted curve.
Structure (SMILES),Potency,"activity change, negative = inhibition"
CCOC(=O)c1cc2c(=O)n3ccccc3nc2n(CCCOC)c1=NC(=O)c1cccnc1,"inconclusive [activator, partial curve]",
O=C1CCC(=O)N1c1ccc(CSc2nnnn2C2CCCCC2)cc1,,inconclusive: -18.1% [inhibitor]
O=C(O/N=C(/c1ccccc1)c1ccncc1)c1cccc(F)c1,,inconclusive: -21.2% [inhibitor]
CCOC(=O)C1(CC2CCCCO2)CCN(Cc2nc3ccccc3nc2C)CC1 (stereo not drawn),,inconclusive: 15.5% [activator]
COc1cccc(-n2nnc3c(=O)n(CC(=O)OCc4ccccc4)cnc32)c1,"inconclusive [inhibitor, single point]",
CCn1c(SCC(=O)c2ccc3c(c2)Cc2ccccc2-3)nnc1-c1ccc(N)cc1,,inactive: -3.11%
Cc1cc2c(C)c(C)c(=O)[nH]c2cc1N,"inconclusive [activator, partial curve]",
CCOc1ccc(N2C(=O)C3C(c4ccccc4)=NN(c4ccccc4)C3C2=O)cc1 (stereo not drawn),"inconclusive [activator, partial curve]",
O=C(N/N=C/C=C\c1ccccc1[N+](=O)[O-])c1cc(-c2ccccc2)nc2ccccc12,"inconclusive [inhibitor, full curve, poor fit]",
O=C(NCc1ccc2c(c1)OCO2)c1ccc(CS(=O)(=O)c2ccc(Br)cc2)o1,"inconclusive [inhibitor, full curve, poor fit]",
O=C(c1ccc(NS(=O)(=O)c2cccc3cccnc23)cc1)N1CCCCC1,"inconclusive [inhibitor, full curve, poor fit]",
O=C(CCCCn1c(=O)[nH]c2ccsc2c1=O)NCc1cccnc1,"inconclusive [inhibitor, single point]",
CCCC(OC(=O)CC1Sc2ccccc2NC1=O)C(=O)NCc1ccco1 (stereo not drawn),"inconclusive [inhibitor, partial curve]",
Cc1c(C(=O)/C=C/c2cccs2)oc2ccc(F)cc12,"inconclusive [inhibitor, single point]",
COc1ccc(Br)cc1CN(C)CC(=O)NCCc1ccccc1,"inconclusive [inhibitor, full curve, poor fit]",
Nc1ccc(C2=Nc3cccc4cccc(c34)N2)cc1,,inactive: 5.72%
Cc1cc(C)nc(NS(=O)(=O)c2ccc(NC(=O)Nc3ccccc3F)cc2)n1,"inconclusive [inhibitor, partial curve]",
CCc1nnc(NC(=O)c2cc(-c3ccncc3)nc3ccccc23)s1,"inconclusive [inhibitor, partial curve]",
Cc1ccc(C(=O)NN2C(=O)C3C4c5ccccc5C(c5ccccc54)C3C2=O)cc1 (stereo not drawn),"inconclusive [inhibitor, partial curve]",
CCCC(=O)Nc1ccc(NC(=O)CCc2ccccc2)cn1,"inconclusive [inhibitor, single point]",
COC(=O)C(Cc1cnc(Cl)s1)(C(=O)OC)c1ccc([N+](=O)[O-])cc1[N+](=O)[O-],"inconclusive [inhibitor, single point]",

Structure (SMILES),Potency,"activity change, negative = inhibition"
O=C(c1coc(=O)c(Br)c1)N1CCCc2ccccc21,"inconclusive [activator, partial curve]",
Cc1cc(C)cc(C(=O)Nc2ccc(N3CCN(S(C)(=O)=O)CC3)cc2)c1,,inconclusive: 15.3% [activator]
Cc1oc(-c2ccc(F)cc2)cc1-c1nn2c(-c3ccoc3C)nnc2s1,,inconclusive: -15.6% [inhibitor]
COc1cccc(-n2nc(C(=O)Nc3ccc4c(c3)OCO4)c3ccccc3c2=O)c1,"inconclusive [inhibitor, full curve, poor fit]",
Cc1ccc(C2N(C)c3ccccc3-c3nc4ccccc4n32)o1 (stereo not drawn),"inconclusive [activator, partial curve]",
CSc1ccc(S(=O)(=O)NCc2ccccc2C)cc1,"inconclusive [inhibitor, partial curve]",
Cc1ccc(S(=O)(=O)NC(=O)c2ccc(-c3ccc(C)c4ccccc34)o2)cc1,"inconclusive [activator, single point]",
O=C(Nc1cccc(-c2nc3ncccc3o2)c1)c1cc2ccccc2o1,"inconclusive [inhibitor, single point]",
Cc1oc(C(=O)O)cc1COc1ccc2c3c(c(=O)oc2c1)CCC3,"inconclusive [activator, single point]",
CCCCC(=O)NC(c1ccco1)c1c(O)ccc2ccccc12 (stereo not drawn),"inconclusive [activator, partial curve]",
C=CCN1C(=O)S/C(=C\c2ccc(N3CCOCC3)cc2C)C1=O,"inconclusive [inhibitor, full curve]",
CCn1c(CSc2nnc3ccccn23)nc2cc(C(=O)O)ccc21,,inactive: -4.16%
O=C(NCCCN1CCOCC1)c1cccc(S(=O)(=O)N2CCc3ccccc3C2)c1,,inconclusive: -18.2% [inhibitor]
c1ccc2sc(N3CN(CCN4CCOCC4)CN(c4nc5ccccc5s4)C3)nc2c1,"inconclusive [inhibitor, partial curve]",
COc1cc(OC)cc(C(=O)Nc2ccc(-c3nc4ccccc4o3)cc2)c1,"inconclusive [activator, single point]",
O=C(NCCCn1ccnc1)c1cc2c(s1)CCCCC2,"inconclusive [inhibitor, single point]",
O=C(CSC1=Nc2ccccc2C2=NC(c3ccccc3)C(=O)N12)NCC1CCCO1 (stereo not drawn),"inconclusive [activator, partial curve]",
Cc1nn(C)c(C(=O)NNC(=S)Nc2ccc(Cl)cc2)c1[N+](=O)[O-],,inconclusive: -15.5% [inhibitor]
CCOC(=O)c1c(/N=C/c2cccc([N+](=O)[O-])c2O)sc2c1CCC2,,inactive: -3.01%
CCC(C)NC(=O)CCC(=O)Nc1ccc2nc(N3CC(C)CC(C)C3)cc(C)c2c1 (stereo not drawn),"inconclusive [activator, partial curve]",
COc1ccc(C)cc1NC(=O)CN1CCN(S(=O)(=O)c2ccc(Cl)cc2)CC1,"inconclusive [inhibitor, single point]",

Structure (SMILES),Potency,"activity change, negative = inhibition"
O=C(CCl)N(Cc1cccc([N+](=O)[O-])c1)c1cccc(Cl)c1,,inactive: 0.594%
COc1ccc2c(CC(=O)Nc3cccc(S(=O)(=O)N4CCOCC4)c3)coc2c1,"inconclusive [inhibitor, partial curve, poor fit]",
Cn1nnnc1SCC(=O)Nc1cccc(S(=O)(=O)N2CCCC2)c1,,inconclusive: -17.1% [inhibitor]
O=C(OCc1cccc([N+](=O)[O-])c1)c1ccncc1,,inconclusive: 7.72% [activator]
Nc1nc2nc(-c3ccc(F)cc3)cc(C(F)(F)F)n2n1,"inconclusive [activator, partial curve]",
Cn1c(N)c(C(=O)COC(=O)c2cc(-c3ccco3)nc3ccccc23)c(=O)n(Cc2ccccc2)c1=O,"inconclusive [activator, single point]",
Cc1cc(C)c(NC(=O)NC(=O)c2ccc(F)cc2)c(C)n1,"inconclusive [inhibitor, single point]",
Cc1cc(N2CCN(c3ccccc3)CC2)nc(-c2ccccc2)n1,,inconclusive: -17.3% [inhibitor]
CCn1cc(C(=O)O)c(=O)c2cc(F)c(N3CCN(S(=O)(=O)c4ccc(NC(=O)OC)cc4)CC3)cc21,"inconclusive [inhibitor, partial curve]",
N#Cc1c(-c2ccc(Cl)cc2)ccn2nc(C3CCCCC3)nc12,"inconclusive [inhibitor, single point]",
c1cncc(-c2nnc(SCc3cccc4ccccc34)o2)c1,"inconclusive [inhibitor, full curve, poor fit]",
CCN(CC)Cc1c(O)ccc2c(=O)c(Oc3ccccc3OC)coc12,"inconclusive [activator, partial curve]",
CCOC(=O)c1ccc(-n2c(N)c(C(=O)NCc3ccco3)sc2=S)cc1,"inconclusive [inhibitor, partial curve, poor fit]",
O=C(C1=C(Nc2ccccc2)c2ccccc2S(=O)(=O)N1)c1ccccc1,"inconclusive [inhibitor, single point]",
CN1CCN(C(=S)Nc2cc(S(=O)(=O)N3CCOCC3)ccc2Cl)CC1,"inconclusive [inhibitor, single point]",
CC(C)C(NC(=O)c1ccccc1)C(=O)NCCc1ccccc1 (stereo not drawn),"inconclusive [inhibitor, partial curve, poor fit]",
CN1CCN(C(=O)c2cc3c(ccc4ccccc43)oc2=O)CC1,"inconclusive [activator, partial curve]",
Cc1ccsc1C1Nc2ccccc2-c2nc3ccccc3n21 (stereo not drawn),"inconclusive [activator, single point]",
CC1CCCN(CCC(=O)Nc2ccccc2)C1 (stereo not drawn),,inconclusive: 11.7% [activator]
C=CCn1c(=NC(=O)CN2C(=O)CCC2=O)sc2cc(S(N)(=O)=O)ccc21,"inconclusive [inhibitor, single point]",
Cc1ccc(CN2CC(C(=O)Nc3ccc(F)c([N+](=O)[O-])c3)CC2=O)cc1 (stereo not drawn),"inconclusive [inhibitor, full curve, poor fit]",
